Laboratory results taken from the supplement of paper PMC11417369.
± gives the standard deviation of the averaged measurements. The list shows a part of the results.

Tested on: PfAP2-G AP2 domain (GST-tagged)
Test: gcPBM binding intensity (ln(normalized median fluorescence intensity)); higher = stronger DNA binding
Method in brief: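 Plasmodium falciparum DNA-binding domains carrying a GST tag were expressed in E. coli and applied for 1 h, at about 25 μg on average, to an Agilent 4 × 180k array. The array held primer-extended double-stranded 36-bp intergenic genomic probes together with negative controls, and binding took place in 1× PBS with 1% milk, 0.2 mg/ml BSA, 0.5% salmon testes DNA and 0.03% Triton X-100. An Alexa488 anti-GST antibody detected bound protein, and the array was scanned at 488 nm. Binding intensity is taken as the highest Masliner-normalised natural-log median intensity across replicate spots of either probe orientation.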

| Sequence | gcPBM binding intensity (ln) |
| --- | --- |
| ATTGTCATCATTATATGTACGTAAAAGAATATAGAT [XGTACX_site3117] | 11.5 ± 1 |
| GAAAGAAGCATAAATGTACACACATATTTATATATT [CACACA_site8368] | 11.3 ± 0.81 |
| TATTTTACTTTAAAAATGGAAAAAAAAAAGAATATT [CACACA_negctrl_site1360] | 9.995 ± 0.078 |
| TTTTTTTTTTTTACATGTACATATGAATTATAATAT [XGTACX_site5016] | 11.2 ± 0.78 |
| TATGTTAAAAAAAAAAAAAAGAAAAAAATAAAAGGA [CACACA_negctrl_site119] | 9.535 ± 0.035 |
| AAACAAATAGACACTTGTACGTAAGTAAATAATTAA [XGTACX_site6157] | 11.3 ± 0.86 |
| AAGGGAAAAATATGGTTGCACTAAAAATATGTAATT [GTGCAC_site9605] | 10.2 ± 0.16 |
| CTTTATACATGACATAGTACCCATTTTAGATTTGAA [XGTACX_site5240] | 11 ± 0.62 |
| TTTCTATATAGATTTGCACACATAAAAATGCTTATA [CACACA_site2390] | 9.95 ± 0.11 |
| TATATTAATTATAAGACACACATATAGTAATAGAAA [CACACA_site2056] | 10.02 ± 0.085 |
| AATAAGAAAACAAATGCACACCATTTATATAGATTA [CACACA_site8261] | 9.795 ± 0.092 |
| ATGGGTTAGGCGTGTACACAATTGTATGGTTTAATA [CACACA_site4812] | 11.6 ± 1 |
| GTATATTACATAAAATGTACATAAAAAGCGGAAAAG [XGTACX_site6905] | 11.2 ± 0.64 |
| ACATATTTTTACTTTTGTACATATTTTTTAATTTTC [XGTACX_site640] | 11.1 ± 0.44 |
| TTTATATATTTTTATCTTGATAATAATGTTTTAGAA [TGCATGCA_negctrl_site300] | 9.7 ± 0.15 |
| TATTCTCGTTCTCATACACACAAAATATACATACAC [CACACA_site7278] | 10.4 ± 0.33 |
| GGGTTAATATTTACTACACACACTTAAAATATGTAT [CACACA_site47] | 10.05 ± 0.092 |
| ATGTATTTTTAAAAATATAAATTATGTAACTTGTGA [XGTACX_negctrl_site620] | 10.1 ± 0.2 |
| TACTGATATAATATAACCGTTTATGTGTATTTTTTA [XGTACX_negctrl_site81] | 9.66 ± 0.11 |
| TATAATAAAATTTTTACACACTTTAAAAAAAAAAAA [CACACA_site524] | 9.85 ± 0.19 |
| AAATATAATTAATGATGTACACTTATAGATATTGAT [XGTACX_site8435] | 11.4 ± 0.68 |
| TTTTCTCTAAAAAGGTGTACAACTAATAATGCACTG [XGTACX_site6074] | 11.7 ± 0.83 |

| Sequence | gcPBM binding intensity (ln) |
| --- | --- |
| ATATATATATAATATTGTACGAAAAAAAATAAAAAA [XGTACX_site974] | 11.1 ± 0.71 |
| CGTGGAAAAAAAAACACACACAAAAAAAAAAAAAAA [CACACA_site3997] | 9.88 ± 0.32 |
| TTCAAATATATGTTTTCACACACAAAAGAAATGAAA [CACACA_site8671] | 9.95 ± 0.19 |
| TATATATATATGTAATGTACATAAATTTTATACCTT [XGTACX_site6991] | 11 ± 0.52 |
| ATATTTATATATTGCACACAAAAAAAAAAAAAAATC [CACACA_site1629] | 10.1 ± 0.3 |
| AAAAAAAAAAAAAAATGTACATATATATAAATAAAA [XGTACX_site5574] | 11.3 ± 0.88 |
| CAGTAGTATATACTATGTACATATTTATATTATATT [XGTACX_site4964] | 11.1 ± 0.57 |
| TAATAAATAAAAATAGAACACACATATGTTTTTTTT [CACACA_site9185] | 9.65 ± 0.14 |
| AATATAAATAAACACACACACATATATATATATATT [CACACA_site2906] | 9.895 ± 0.021 |
| GAGTGAAATATGCAAACACACACGAGAAAAATGTAT [CACACA_site3196] | 10.11 ± 0.092 |
| TATGGTTTTAAAAAATGTACGCAAGTGCGTTAATTT [XGTACX_site3945] | 11.3 ± 0.75 |
| TATATTCATAATATTACACACGTTCATTTATTTTAA [CACACA_site2031] | 10.04 ± 0.014 |
| ACATTTAAAATTTATGCATGTGGTGTTTTGTATATA [TGCATGCA_site534] | 10.1 ± 0.25 |
| TTTGTGTAGGTGTGTAGTACATATAACTTATAACAT [XGTACX_site7885] | 11.5 ± 0.93 |
| TAATAAAATGTACACGCATGCAATAGAATATAAAGT [TGCATGCA_site905] | 11.4 ± 0.95 |
| AACAACCAAACGCACACACACAAAAAAAAAAATATA [CACACA_site6326] | 10.2 ± 0.47 |
| TTATATGCATAAAAAGGTACACATATATAAATAAAT [XGTACX_site6894] | 11.4 ± 0.77 |
| TTTTTTTGTTAAAAGGTGCTAATATATATAAGTGCT | 9.96 ± 0.2 |
| GTCCCTATAAGGGGAACACACATAAATGAATATATA [CACACA_site1024] | 10.5 ± 0.44 |
| AAATTTATAAAGAACACACACATATAAATATAAATA [CACACA_site6174] | 10.05 ± 0.071 |
| TTATATATTTATATATGTACACATTTTACCATTTTT [XGTACX_site2142] | 11.6 ± 1.1 |
| ATTTATTTCTTGTTAGTGCACTTTCTTTGGTAAAAT | 10.5 ± 0.36 |
